Out of some 48,000 compounds screened, about 550 (1.1%) were called active. Another 4% or so got no clear call; they are omitted. Rule as the data show it: active = potency below about 15 µM; inconclusive = mostly about 16 µM to 33 µM; inactive = weaker than that. The list shows a part of the results.
molecular target: Lysosomal acid glucosylceramidase (Homo sapiens) (UniProt P04062); experiment: Glucocerebrosidase; conditions: purified enzyme, resorufin glucoside fluorescence (screen aimed at inhibitors), 20 min;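 also: the screen sought inhibitors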
Summary of the method: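 Normal human glucocerebrosidase (0.2 nM final) was assayed with resorufin β-D-glucopyranoside (30 uM final) in 50mM citric acid/KH2PO4, 10mM sodium taurocholate, 0.01% tween-20, pH 5.9. Compounds were titrated; fluorescence (Ex 548, Em 600) read after 20 min at RT.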
Potency is read from the fitted curve at half-maximal effect.

Chain of UniProt P04062 (P04062 whole entry, looked up): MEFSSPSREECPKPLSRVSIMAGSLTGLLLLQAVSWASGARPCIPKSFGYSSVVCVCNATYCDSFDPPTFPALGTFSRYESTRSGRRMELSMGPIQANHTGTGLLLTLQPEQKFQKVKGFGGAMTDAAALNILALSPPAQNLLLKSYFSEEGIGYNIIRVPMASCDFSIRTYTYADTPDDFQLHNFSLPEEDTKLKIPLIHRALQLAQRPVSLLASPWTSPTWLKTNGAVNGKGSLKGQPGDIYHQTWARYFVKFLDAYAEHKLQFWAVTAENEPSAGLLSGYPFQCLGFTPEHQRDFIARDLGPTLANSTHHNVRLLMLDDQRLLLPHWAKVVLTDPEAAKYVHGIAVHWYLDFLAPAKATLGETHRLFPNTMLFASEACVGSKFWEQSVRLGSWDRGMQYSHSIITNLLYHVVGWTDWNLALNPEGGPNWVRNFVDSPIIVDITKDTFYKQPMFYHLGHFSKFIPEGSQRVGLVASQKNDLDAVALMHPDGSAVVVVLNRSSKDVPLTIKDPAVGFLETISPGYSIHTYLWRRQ

**Q.** How did the Potency turn out when COc1cc2c(C(=O)N3CCN(C)CC3)c(C)n(C)c2cc1Br was run?
**A.** inactive: > 76.9 µM

**Q.** For Cc1ccc(Cn2nnnc2CN2CCC(n3nnc4cc(C)ccc43)CC2)cc1, which Potency is on record?
**A.** inactive: > 76.9 µM

**Q.** With CCC(=O)OC1(c2cccc(C)c2)CC(C)N(C)CC1C (centres undefined) as the compound, how does the Potency read?
**A.** inactive: > 76.9 µM

**Q.** For CCOC(=O)c1c(N)n(CCCOC(=O)c2ccco2)c2nc3ccccc3nc12, which Potency is on record?
**A.** inactive: > 76.9 µM

**Q.** CCn1c(=O)cc(SCC(=O)N2CCC3(CC2)OCCO3)c2ccccc21 was tested. Which Potency did it give?
**A.** inactive: > 76.9 µM

**Q.** For Cc1cccc(NC2=NCCCS2)c1C, which Potency is on record?
**A.** inactive: > 76.9 µM

**Q.** With Cn1nc(N)c2c1N=P(N1CCOCC1)(N1CCOCC1)N=C2c1ccccc1 as the compound, how does the Potency read?
**A.** inactive: > 76.9 µM

**Q.** For COC(=O)C(O)(c1ccc2c(c1)CCCN2)C(F)(F)F (centres undefined), which Potency is on record?
**A.** inactive: > 76.9 µM

**Q.** How did the Potency turn out when Cc1ccc2nc3c(cc2c1)CC1(C(=O)N(C)C(=O)N(C)C1=O)C1CCCCN31 (centres undefined) was run?
**A.** inactive: > 76.9 µM

**Q.** How did the Potency turn out when Cc1ccc(C2(O)CCN3CCCCC32)cc1 (centres undefined) was run?
**A.** inactive: > 76.9 µM

**Q.** COC(=O)C(O)(c1cn(C)c2ccccc12)C(F)(F)F (centres undefined) was tested. Which Potency did it give?
**A.** inactive: > 76.9 µM

**Q.** O=C1C2CCCN2C(c2cccnc2)N1c1ccc(Cl)c(Cl)c1 (centres undefined) was tested. Which Potency did it give?
**A.** inactive: > 76.9 µM

**Q.** With CC1(C)C(C(=O)NCc2ccco2)C1(C)C as the compound, how does the Potency read?
**A.** inactive: > 76.9 µM

**Q.** For CN(C)CC#CCOCCOCCC#N, which Potency is on record?
**A.** inactive: > 76.9 µM

**Q.** Cn1c(C(=O)O)c(CC(=O)N2CCN(Cc3ccccc3)CC2)c2ccccc21 was tested. Which Potency did it give?
**A.** inactive: > 76.9 µM

**Q.** Which Potency does the source give for Cc1ccc(Cl)cc1-n1c(O)c(C=NCCCN2CCOCC2)c(=O)[nH]c1=O here?
**A.** inactive: > 76.9 µM

**Q.** With CCCC1(CCC)C(=O)NC(=NCc2ccccc2)NC1=O as the compound, how does the Potency read?
**A.** inactive: > 76.9 µM

**Q.** C=CCn1c(O)c(C(CC)=NCc2cc(OC)cc(OC)c2)c(=O)[nH]c1=O was tested. Which Potency did it give?
**A.** inactive: > 76.9 µM

**Q.** How did the Potency turn out when Cc1cc(C(=O)N2CCC3(CC2)OCCO3)cs1 was run?
**A.** inactive: > 76.9 µM

**Q.** How did the Potency turn out when COc1ccc(OC)c(CC(=O)O)c1 was run?
**A.** inactive: > 76.9 µM

**Q.** How did the Potency turn out when O=C(CCCCCn1c(=S)[nH]c2ccccc2c1=O)N1CCC2(CC1)OCCO2 was run?
**A.** inactive: > 76.9 µM

**Q.** Which Potency does the source give for COc1ccc(-c2nc(CS(=O)CC(=O)N3CCC4(CC3)OCCO4)c(C)o2)cc1 (centres undefined) here?
**A.** inactive: > 76.9 µM

**Q.** For CCCCn1c(O)c(C(CC)=NCc2ccc3c(c2)OCO3)c(=O)[nH]c1=O, which Potency is on record?
**A.** inactive: > 76.9 µM

**Q.** COc1ccc(CN2CCN(Cc3ccccc3)CC2)c(OC)c1 was tested. Which Potency did it give?
**A.** inactive: > 76.9 µM

**Q.** With CCOC(=O)CC1=C(C(=O)OCC)C2(C(=O)N1)C(C(=O)OC)=C(N)Oc1ccccc12 (centres undefined) as the compound, how does the Potency read?
**A.** inactive: > 76.9 µM

**Q.** For CCN(CC)CCN=Cc1c(O)n(CCC2=CCCCC2)c(=O)[nH]c1=O, which Potency is on record?
**A.** inactive: > 76.9 µM

**Q.** How did the Potency turn out when C=Cn1ccnc1P(=S)(c1ccc(N(C)C)cc1)c1nccn1C=C was run?
**A.** inactive: > 76.9 µM

**Q.** For CC1CN=C(NCc2ccncc2)S1 (centres undefined), which Potency is on record?
**A.** inactive: > 76.9 µM

**Q.** CCOC(=O)c1ccc(N2C(=O)CC(N3CC=C(c4ccc(F)cc4)CC3)C2=O)cc1 (centres undefined) was tested. Which Potency did it give?
**A.** inactive: > 76.9 µM

**Q.** With O=c1[nH]c(=O)n(Cc2ccc(F)cc2)c(O)c1C=NCC1CCCO1 (centres undefined) as the compound, how does the Potency read?
**A.** inactive: > 76.9 µM

**Q.** Which Potency does the source give for Fc1ccc2c(c1)nnn2C1CCN(Cc2ccccc2)CC1 here?
**A.** inactive: > 76.9 µM

**Q.** Which Potency does the source give for CCC(=NCc1ccco1)c1c(O)n(Cc2ccccc2)c(=O)[nH]c1=O here?
**A.** inactive: > 76.9 µM

**Q.** For CN(C)c1nc(OCCNC(=O)COc2ccc(Cl)cc2Cl)nc(N2CCCCC2)n1, which Potency is on record?
**A.** inactive: > 76.9 µM

**Q.** COc1ccc(OCC(=O)N2CCN(CC3CC4C=CC3C4)CC2)cc1 (centres undefined) was tested. Which Potency did it give?
**A.** inactive: > 76.9 µM

**Q.** Which Potency does the source give for CN1CCC(O)(c2ccccc2)C2CCCC21 (centres undefined) here?
**A.** inactive: > 76.9 µM

**Q.** Which Potency does the source give for CCC(C)(C)n1nnnc1C(c1cccs1)N1CC=C(c2ccc(F)cc2)CC1 (centres undefined) here?
**A.** inactive: > 76.9 µM

**Q.** Cc1nc2ccccc2c(=O)n1-c1cccnc1 was tested. Which Potency did it give?
**A.** inactive: > 76.9 µM

**Q.** With O=C1NC(=O)C(Cc2cccs2)C(=O)N1 as the compound, how does the Potency read?
**A.** inactive: > 76.9 µM

**Q.** With CCOC(=O)C1=C(C)OC(N)=C(C(=O)OC)C12C(=O)Nc1ccc(Br)cc12 (centres undefined) as the compound, how does the Potency read?
**A.** inactive: > 76.9 µM

**Q.** Which Potency does the source give for CC12CN3CC(C)(CN(C1)C31CCSCC1)C2=O here?
**A.** inactive: > 76.9 µM

**Q.** How did the Potency turn out when CC12CN3CC(C)(CN(C1)C3c1cccs1)C2 (centres undefined) was run?
**A.** inactive: > 76.9 µM

**Q.** Which Potency does the source give for O=c1c2ccccc2nc(CN2CCCCCC2)n1-c1ccc(F)cc1 here?
**A.** inactive: > 76.9 µM

**Q.** For CC(C)NS(=O)(=O)c1ccc(OCC(=O)N2CCN(Cc3ccccc3)CC2)c(Cl)c1, which Potency is on record?
**A.** inactive

**Q.** Which Potency does the source give for CCOC(=O)c1c(C)n(Cc2ccco2)c2ccc(O)cc12 here?
**A.** inactive: > 76.9 µM

**Q.** Which Potency does the source give for CN1CCN(C(=O)OC2c3nccnc3C(=O)N2c2ccc(Cl)cn2)CC1 (centres undefined) here?
**A.** inactive: > 76.9 µM

**Q.** O=C(O)C1(c2ccc(Cl)cc2)CCC1 was tested. Which Potency did it give?
**A.** inactive: > 76.9 µM

**Q.** How did the Potency turn out when FC(F)(F)c1ccc2c(c1)ncn2C1CCN(Cc2nnnn2C2CCCCC2)CC1 was run?
**A.** inactive: > 76.9 µM

**Q.** O=C(Nc1cccc(Cl)c1)c1c(O)c2c(n(Cc3ccco3)c1=O)CCCC2 was tested. Which Potency did it give?
**A.** inactive: > 76.9 µM

**Q.** With Cc1ccccc1CS(=O)(=O)Cc1ccc(C(=O)N2CCC3(CC2)OCCO3)o1 as the compound, how does the Potency read?
**A.** inactive: > 76.9 µM

**Q.** For c1ccc2c(NC3=NCCS3)cccc2c1, which Potency is on record?
**A.** inactive: > 76.9 µM

**Q.** With O=C(Nc1ccc2c(c1)OCO2)c1cn(Cc2ccc(F)cc2)nn1 as the compound, how does the Potency read?
**A.** inactive: > 76.9 µM

**Q.** For Cc1cccc(C)c1NC1=NCCCS1, which Potency is on record?
**A.** inactive: > 76.9 µM

**Q.** O=C(CN1C(=O)CN=C(c2ccccc2)c2ccccc21)NCc1ccco1 was tested. Which Potency did it give?
**A.** inactive: > 76.9 µM

**Q.** With CCCNS(=O)(=O)c1ccc(OCC(=O)N2CCN(Cc3ccc4c(c3)OCO4)CC2)cc1 as the compound, how does the Potency read?
**A.** inactive: > 76.9 µM

**Q.** Which Potency does the source give for O=S1(=O)CC2(N3CCOCC3)CCCCCCC21 (centres undefined) here?
**A.** inactive: > 76.9 µM

**Q.** For C=CCn1c(O)c(C(C)=Nc2cc(OC)ccc2OC)c(=O)[nH]c1=O, which Potency is on record?
**A.** inactive: > 76.9 µM

**Q.** COC(=O)c1ccccc1-n1c(C)nc2ccccc2c1=O was tested. Which Potency did it give?
**A.** inactive: > 76.9 µM

**Q.** Which Potency does the source give for O=c1cccc2n1CC1CC2CN(Cc2c(Cl)cccc2Cl)C1 (centres undefined) here?
**A.** inactive: > 76.9 µM

**Q.** With COc1ccccc1CN1CCN(C(=O)COc2ccccc2)CC1 as the compound, how does the Potency read?
**A.** inactive: > 76.9 µM

— PubChem BioAssay AID360 (National Center for Advancing Translational Sciences (NCATS), 2006)
